Experimental data taken from PubChem BioAssay AID938 (National Center for Advancing Translational Sciences (NCATS), 2007).
In all, about 73,000 compounds went through this assay and about 1,800 (2.5%) were called active. Inconclusive results, whose numbers are uncertain, are shown with a selection of clear calls. Calls follow the shape of the dose curve; as a rule, active = well fitted activation curve with a large enough effect; inconclusive = small, poorly fitted or top-dose-only effect; inactive = no such curve, though single readings can be large or run the other way. No potency is given beside an inconclusive call; the fits are too rough.

Experiment: qHTS Assay for Agonists of the Thyroid Stimulating Hormone Receptor: Activators of Intracellular cAMP Concentrations in Parental HEK 293; also: nearly all actives have a fitted effect of over 55% in size; as to activation: % of control where 0% means no effect
Conditions: parental HEK293 CNG cAMP sensor, membrane potential fluorescence; activation: at 57.1 µM (top of the series) unless noted
Summary of the method: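 Counterscreen for endogenous-receptor signalling: CNG-channel HEK 293 cells report cAMP rise by membrane depolarization. After 60 min dye equilibration with 100 uM RO 20-1724, compounds incubated 30 min before bottom-read fluorescence at 590 nm.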
Potency is read from the fitted curve at half-maximal effect; tags tell the direction and shape of the fitted curve.

SMILES	Potency	activation
O=C(Nc1ccc(OC(F)(F)F)cc1)c1cnc2n(c1=O)CCS2	inactive	–
O=C(O)c1ccc(Cl)cc1NC(=O)C1CCCO1 (stereo not given)	inconclusive [activator, single point]	–
Cc1nc2cnc(Oc3cccc(Cl)c3)nc2n(C[C@H]2CCCO2)c1=O	inconclusive [activator, partial curve]	–
CCc1nc(OCCN(CC)CC)c2oc3ccccc3c2n1	inactive	–
O=C(c1cc(-c2ccccc2)nc2ccccc12)N1CCN(c2ccccn2)CC1	inactive	–
Cc1nn(-c2nc3ccccc3s2)c(N)c1-c1ccccc1	inactive	–
O=C(C1CCCN(S(=O)(=O)c2ccccc2)C1)N1CCCc2ccccc21 (stereo not given)	inconclusive [activator, single point]	–
O=C(CCC(=O)N(CC(=O)NC1CCCC1)Cc1ccc2c(c1)OCO2)Nc1ccccn1	inconclusive [activator, single point]	–
COC(=O)[C@@]1(Cc2ccc(F)cc2)[C@H]2c3cc(C(=O)N4CCCC4)n(Cc4ccc(S(C)(=O)=O)cc4)c3C[C@H]2CN1C(=O)c1ccccc1	active: 15.8 µM	–
CC(C)(C)n1nnnc1C(c1ccccc1F)N1CCN(C2CCCC2)CC1 (stereo not given)	inconclusive [activator, partial curve]	–
O=C(c1cn(CC(=O)N2CCCC2)c2ccccc12)C1CCCCC1	inconclusive [activator, single point]	–
CCNc1ncc2nc(-c3ccc(Cl)cc3)c(=O)n(C[C@H]3CCCO3)c2n1	inactive	–
Cn1cccc1C(=O)N1CCC2(CCCN(C(c3ccccc3)c3ccccc3)C2)CC1	inactive	–
CN1CCN(c2ccc(NC(=O)c3ccc4c(c3)OCO4)cc2)CC1	inactive	–
Cn1c(CSc2ncccn2)nnc1SCC(=O)N1CCCc2ccccc21	inconclusive [activator, single point]	–
OCCNc1ncnc2c1ncn2[C@@H]1O[C@@H](CO)[C@H](O)[C@@H]1O	–	inactive: -8.86% [at 11.4 µM]
O=C(NC1CCCCC1)N(Cc1nc2ccccc2c(=O)[nH]1)C1CCCCC1	inconclusive [activator, single point]	–
COC1(OC)N=C(N)C2(C#N)C(c3ccc(F)cc3)C12C#N (stereo not given)	inconclusive [activator, full curve, poor fit]	–
N#Cc1c(NCCCO)nc(NCc2ccccc2)c2c1CCN(Cc1ccccc1)C2	inactive	–
CC(C)C(=O)Nc1ccc(NC(=O)c2cc3ccccc3o2)cc1	inactive	–
COc1ccc(CNC(=O)c2cnc3n(c2=O)CCS3)cc1	inconclusive [activator, single point]	–
Cc1ccc(C2CC(C(F)(F)F)n3nc(C(=O)NCC4CCCO4)cc3N2)cc1 (stereo not given)	inconclusive [activator, single point]	–
Nc1ccc2cc3ccccc3cc2c1	inactive	–
O=C(Cn1c(=O)oc2cc(S(=O)(=O)N3CCCC3)ccc21)Nc1ccc(C(F)(F)F)cc1	inactive	–

SMILES	Potency	activation
CCCn1c(NC(=O)C2CCN(S(=O)(=O)c3cccs3)CC2)nc2ccccc21	inconclusive [activator, single point]	–
O[C@H](C[C@@H]1CCCCN1)c1ccc2c(c1)oc1ccccc12	–	inactive: 8.18% [at 11.4 µM]
CC1=CC2=NC(=O)CC(C)(C(=O)N(CC(=O)NC(C)(C)C)C3CCCC3)N2C=C1 (stereo not given)	inconclusive [activator, partial curve]	–
O=C(O)[C@@H]1[C@@H](C(=O)Nc2ncccn2)[C@@H]2C=C[C@@H]1O2	–	inactive: -3.37% [at 11.4 µM]
Cc1ccccc1NC(=O)CN(C)S(=O)(=O)c1cccc2cccnc12	inconclusive [activator, partial curve, poor fit]	–
CCOC(=O)C1=C(C)NC(=O)NC1c1ccc(F)cc1 (stereo not given)	inactive	–
CCOc1ccc2[nH]c(=O)c(CN(Cc3ccc(F)cc3)C(=O)c3ccco3)cc2c1	inconclusive [activator, single point]	–
COc1ccc(C(=O)N2CCC3(CCN(Cc4ccc(C#N)cc4)CC3)CC2)cc1	inconclusive [activator, partial curve]	–
CC(C)(C)n1nnnc1C(c1ccccc1)N1CCc2ccccc2C1 (stereo not given)	inconclusive [activator, partial curve]	–
O=C(N[C@@H](c1ccccc1)[C@@H]1C[C@H]1C(=O)NCc1ccccc1)OCc1ccccc1	active: 12.6 µM	–
Cc1ccccc1Nc1nc(N)nc(CSc2nnnn2-c2ccccc2)n1	inconclusive [activator, partial curve]	–
COC(=O)[C@@]1(Cc2ccc(OC)cc2)[C@H]2c3cc(C(=O)N(C)C)n(Cc4ccc(C)c(F)c4F)c3C[C@H]2CN1C(=O)c1ccccc1	active: 2.51 µM	–
CCC(=O)c1cc2c(cc1NC(=O)C(C)C)OCCO2	inconclusive [activator, single point]	–
Cc1nc(C)n(C(=O)N(c2ccccc2)c2ccccc2)n1	inconclusive [activator, partial curve]	–
COc1cc(NCCCC(C)N)c2ncccc2c1 (stereo not given)	inconclusive [activator, partial curve]	–
CCC(=O)c1cc2c(C)cc(=O)oc2c(C)c1O	inactive	–
Nc1nc(N)c2[nH]cnc2n1 (tested in a mixture with another compound)	–	inactive: -0.352% [at 11.4 µM]
COc1cc2cc(C(c3nnnn3C3CCCC3)N(C)C3CCCCC3)c(=O)[nH]c2cc1OC (stereo not given)	inconclusive [activator, partial curve]	–
Cn1c(=O)[nH]c(=O)c2c1nc(N1CCCCC1)n2CCOc1ccccc1	inconclusive [activator, single point]	–
COc1cc2c(cc1NC(=O)CN(C)Cc1nc3ccccc3c(=O)[nH]1)oc1ccccc12	inconclusive [activator, single point]	–
CCCCOC(=O)Nc1nc(C)c(C(=O)OCC)s1	inconclusive [activator, partial curve]	–
O=C(Cc1cn2ccsc2n1)OCc1nc2ccccc2s1	inconclusive [activator, single point]	–
O=S1(=O)Nc2c(ccc3cccnc23)-c2ccccc21	inconclusive [activator, partial curve]	–
COc1cccc(-c2noc(C3CCCN(S(=O)(=O)c4cccc(Cl)c4C)C3)n2)c1 (stereo not given)	inconclusive [activator, partial curve]	–

SMILES	Potency	activation
C[C@@H]1c2ccccc2CN1CC1=NCCN1	inactive	–
O=C(NCCN1CCCCCC1)c1ccc(CS(=O)(=O)c2ccc(Br)cc2)o1	inconclusive [activator, single point]	–
COc1ccc(C(=O)CSc2nnc(Cc3ccccc3)o2)cc1	inactive	–
COC(=O)c1nnn(-c2nonc2N)c1CSc1nc2ccccc2s1	inconclusive [activator, single point]	–
O=C(CSc1nccc(=O)[nH]1)N1c2ccccc2CCc2ccccc21	inconclusive [activator, single point]	–
Cc1ccc(C(=O)CSc2nnc(COc3cc(C)cc(C)c3)o2)cc1	inconclusive [activator, partial curve]	–
O=C(Cc1ccccc1)Nc1ccc(CN2CCOCC2)cc1	inactive	–
Cc1ccc(-c2n[nH]c(=O)c3ccccc23)cc1N	inconclusive [activator, single point]	–
CC(C)NC(=O)CN(CCc1ccccc1)S(C)(=O)=O	inactive	–
O=C1c2ccccc2C(=O)N1CC#CCN1CCN(C2CCCCC2)CC1	inconclusive [activator, single point]	–
Cc1ccc(N2CCN(S(=O)(=O)c3ccc(F)cc3)CC2)c(C)c1	inactive	–
O=C(c1ccco1)N1c2ccccc2Sc2ccccc21	active: 20 µM	–
CC(=O)c1c(C(C)=O)c(C)n(Cc2ccc3c(c2)OCO3)c1C	active: 12.6 µM	–
O=C(Nc1cccc(-c2nnc(-c3ccccc3)o2)c1)c1ccc(Br)o1	inconclusive [activator, single point]	–
COC(=O)c1ccccc1NC(=O)CSc1nc(-c2ccco2)cc(C(F)(F)F)n1	inconclusive [activator, partial curve]	–
CCC(=O)OCC(=O)[C@@]1(OC(=O)CC)[C@H](C)C[C@@H]2[C@H]3CCC4=CC(=O)C=C[C@]4(C)[C@]3(Cl)[C@@H](O)C[C@@]21C	inactive	–
COc1ccc(N2CCN(S(=O)(=O)c3cccc(C(F)(F)F)c3)CC2)cc1	inactive	–
CC(C)c1cccc2nc3c(c(C(C)(C)C)c12)Cn1c-3cccc1=O	inconclusive [activator, partial curve]	–
CC(=O)Cc1nsc(NC(=O)c2ccc(-c3ccc(Cl)c(C(F)(F)F)c3)o2)n1	inactive	–
CCN(Cc1ccccc1)C(c1cccs1)c1nnnn1C1CCCCC1 (stereo not given)	inconclusive [activator, partial curve, poor fit]	–
COc1ccccc1NC(=O)CSc1nnc(-c2ccco2)n1Cc1ccco1	inconclusive [activator, single point]	–
CCOc1ccc(OCc2ccc(C(=O)OCc3ccccn3)o2)cc1	inconclusive [activator, single point]	–
